From paper PMC4336329 (PLoS ONE, 2015)
Out of some 310,000 compounds screened, about 2,200 (0.71%) showed an effect of 50% or more. Effects have a minus sign here. Some of the results follow.

molecular target: human ether-à-go-go-related gene (hERG) potassium channel (human, UniProt Q12809); experiment: primary screen, population patch clamp on CHO cells stably expressing hERG
Sequence (Q12809 whole entry, looked up): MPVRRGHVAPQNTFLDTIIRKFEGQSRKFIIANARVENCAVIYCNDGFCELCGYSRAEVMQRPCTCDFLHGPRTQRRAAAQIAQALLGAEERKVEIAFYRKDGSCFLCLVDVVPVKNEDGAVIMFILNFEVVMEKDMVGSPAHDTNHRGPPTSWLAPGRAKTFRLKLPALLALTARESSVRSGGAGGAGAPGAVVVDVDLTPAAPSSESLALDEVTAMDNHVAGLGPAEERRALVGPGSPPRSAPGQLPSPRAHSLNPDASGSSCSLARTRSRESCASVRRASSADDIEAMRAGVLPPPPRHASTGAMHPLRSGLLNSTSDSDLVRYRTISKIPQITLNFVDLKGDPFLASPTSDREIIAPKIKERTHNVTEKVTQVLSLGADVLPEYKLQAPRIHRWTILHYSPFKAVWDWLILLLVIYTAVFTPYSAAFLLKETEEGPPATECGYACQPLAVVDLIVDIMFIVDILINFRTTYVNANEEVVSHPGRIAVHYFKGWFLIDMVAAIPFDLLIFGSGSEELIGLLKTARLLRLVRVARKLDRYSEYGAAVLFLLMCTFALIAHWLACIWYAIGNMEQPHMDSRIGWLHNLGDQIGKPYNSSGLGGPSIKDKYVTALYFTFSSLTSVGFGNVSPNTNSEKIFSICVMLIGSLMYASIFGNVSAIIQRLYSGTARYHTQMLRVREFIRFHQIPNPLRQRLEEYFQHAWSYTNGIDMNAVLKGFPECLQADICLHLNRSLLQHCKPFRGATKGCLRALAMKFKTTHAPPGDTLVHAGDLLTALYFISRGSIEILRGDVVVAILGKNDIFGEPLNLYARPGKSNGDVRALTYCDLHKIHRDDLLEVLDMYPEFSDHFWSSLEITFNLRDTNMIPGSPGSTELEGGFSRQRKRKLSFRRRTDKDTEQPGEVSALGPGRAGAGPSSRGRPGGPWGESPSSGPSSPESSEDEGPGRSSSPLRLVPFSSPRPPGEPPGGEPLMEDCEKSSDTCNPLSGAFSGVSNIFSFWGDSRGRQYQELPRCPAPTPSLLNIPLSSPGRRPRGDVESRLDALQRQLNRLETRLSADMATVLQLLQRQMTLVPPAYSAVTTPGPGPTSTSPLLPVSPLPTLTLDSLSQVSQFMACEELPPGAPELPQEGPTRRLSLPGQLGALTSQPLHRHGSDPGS

Row | SMILES | hERG current change (%, negative = inhibition) at 1uM [%]
1 | COc1ccccc1NC(=O)NNC(=O)C(C)Oc1ccc2ccccc2c1 (centres unmarked) | 9.82
2 | N#C/C(=N/Nc1ccc(OC(F)(F)F)cc1)C(N)=S | 1.06
3 | Cc1cc(=O)[nH]c(SCC(N)=O)c1C#N | 7.82
4 | O=C(Cn1nnc2ccccc21)N/N=C/c1ccco1 | -5.84
5 | O=C1/C(=C/c2cccc(F)c2)SC(=S)N1NS(=O)(=O)c1ccccc1 | 6.67
6 | COc1ccc(NS(=O)(=O)CC23CCC(CC2=O)C3(C)C)cc1 (centres unmarked) | -0.524
7 | Cn1c(=NC(=O)CSCC(=O)N2CCOCC2)sc2ccccc21 | 10.9
8 | O=C(Nc1nc2ccccc2[nH]1)c1cccc(F)c1 | 28.3
9 | Cc1ccc(OCCCC(=O)Nc2ccccc2C(F)(F)F)cc1 | 9.07
10 | CN(Cc1ccccc1)c1nc2c(c(=O)[nH]c(=O)n2C)n1Cc1ccccc1F | 17.4
11 | CCCN(CC1CC1)S(=O)(=O)c1ccc(-n2cnnn2)c(OC)c1 | -9.37
12 | O=c1c2c3c(sc2nc2n1N=C(c1cccs1)CS2)CCCC3 | 8.43
13 | COCCn1nnnc1C(C(C)C)N(Cc1cccnc1)Cc1cc2cc(OC)ccc2[nH]c1=O (centres unmarked) | -3.47
14 | Cc1cccc(OCCN2CCOCC2)c1C | 10.8
15 | Cc1ccc(N2CC(C(=O)O)CC2=O)cc1 (centres unmarked) | 14.4
16 | Cc1cc2oc(=O)cc(C)c2c(=O)o1 | -1.68
17 | COc1ccc(-n2nc(C(=O)N3CCN(Cc4ccc5c(c4)OCO5)CC3)c3ccccc3c2=O)cc1 | 5.38
18 | O=S(=O)(NCc1ccccc1)c1ccc(Cl)c(S(=O)(=O)NCc2ccccc2)c1 | -0.731
19 | CCOC(=O)c1sc(=NC(=O)/C=C/c2ccccc2)n(C)c1C | 5.68
20 | CN1CCN(C(=O)/C=C/c2ccc(Cl)c(Cl)c2)CC1 | 1.42
21 | O=C(CCN1C(=O)/C(=C/c2ccccc2F)SC1=S)NCCCn1ccnc1 | -0.644
22 | Cl.N#Cc1cccc(C(c2nnnn2Cc2ccccc2)N2CCCC2)c1 (centres unmarked) | -3.7
23 | Cc1ccccc1NC(=O)COC(=O)c1c(-c2ccccc2)noc1C | 6.78

Row | SMILES | hERG current change (%, negative = inhibition) at 1uM [%]
24 | CCOC(=O)c1cccc(NC(=O)c2cnccn2)c1 | 5.67
25 | O=C(Cn1ncc2c([nH]c3ccccc32)c1=O)NCCc1ccc(Cl)cc1 | 17.1
26 | CCNC(=S)Nc1ccc2c(c1)oc1ccccc12 | 2.76
27 | CCOc1ccc(S(=O)(=O)N2CCCCC2)cc1NC(=O)Cc1ccsc1 | 14.7
28 | CCC(CC)CN1CCN=C1N(C)C | -0.425
29 | Cc1ccc(-n2ncc3c(NCCCOC(C)C)ncnc32)c(C)c1 | 4.85
30 | CCOc1ccc(CN2CCN(Cc3cc4c(cc3Cl)OCO4)CC2CCO)cc1 (centres unmarked) | -62.9
31 | COC(=O)CN1C(=O)Nc2ccc(C)cc2C1c1ccccc1 (centres unmarked) | 10.6
32 | COc1ccc(NC(=O)CN(C)C(=O)C2=COCCO2)cc1 | 10.1
33 | O=C(Nc1ccc(F)cc1)c1ccc2ncsc2c1 | 16.4
34 | COc1ccc(/C=C2\SC(=O)N(CCC(=O)N3CCN(C)CC3)C2=O)cc1 | 5.86
35 | CCN(Cc1ccccc1)CC(O)COc1ccccc1.Cl (centres unmarked) | -4.33
36 | COc1ccc(-c2ccccc2)c2oc(-c3ccco3)cc(=O)c12 | 19.9
37 | Nc1c(C(=O)NCc2ccccc2)nnn1Cc1ccc(F)cc1 | 15.9
38 | Nc1ncnc2nc(N3CCN(C(=O)c4ccccc4)CC3)[nH]c12 | 11.9
39 | Cc1cc(Br)ccc1NC(=O)CN(C)Cc1cccs1 | 14.8
40 | Cc1nn(C(C)C(=O)N2CCc3ccccc32)c(C)c1[N+](=O)[O-] (centres unmarked) | 15.3
41 | C=CCn1c(COc2cccc(C)c2)nnc1SCn1nnc2ccccc2c1=O | 6.15
42 | COCc1cc(C)nc(SCC(=O)Oc2ccc(Cl)cc2)c1C#N | 7.76
43 | O=C(NCc1ccccc1)c1ccc2nccnc2c1 | 15.8
44 | COC(=O)c1ccccc1NS(=O)(=O)c1ccc(F)cc1 | -8.65
45 | CCCNC(=O)N1CCC(c2nc3ccccc3s2)CC1 | 5.38
46 | CC(=O)Nc1ccc(NC(=O)C(C)Sc2nnc(C3CC3)n2-c2ccccc2)cc1 (centres unmarked) | 11.9

Row | SMILES | hERG current change (%, negative = inhibition) at 1uM [%]
47 | O=C(NN=C1CCCCCCCCCCC1)c1ccccc1F | 9.84
48 | COCCn1c(SCC(=O)N(C)C2CCS(=O)(=O)C2)nc2ccccc2c1=O (centres unmarked) | 4.99
49 | COc1ccc(CC(=O)N/N=C(/C)CC(=O)N(C)c2ccccc2)cc1 | 13.4
50 | CCOC(=O)C1CCCN(c2cc(=O)n(C3CCCCC3)c(=O)[nH]2)C1 (centres unmarked) | -3.71
51 | CN(C(=O)CSc1ncnc2ccccc12)C1CCS(=O)(=O)C1 (centres unmarked) | 3.18
52 | COc1ccc(C(=O)O)cc1S(=O)(=O)Nc1cccc(C)c1 | -1.21
53 | O=C(CN1C(=O)C2CC=CCC2C1=O)Nc1ccccc1N1CCCC1 (centres unmarked) | 7.44
54 | O=C(CP(=O)(c1ccccc1)c1ccccc1)N/N=C/c1cc(Br)cc(Br)c1O | 19.8
55 | CC(=O)Nc1ccc(/C=N/NC(=O)c2cc3ccccc3nc2C)cc1 | 9.08
56 | COCCn1c(=S)[nH]c2sc3c(c2c1=O)CCCC3 | 14.9
57 | COc1cccc(NC(=O)COC(=O)c2ccc(S(=O)(=O)NCc3ccco3)cc2)c1 | -8.17
58 | CCCCc1nc2cc(C(=O)N3CCCCC3COC)ccc2o1 (centres unmarked) | -3.03
59 | COCCNC(=O)C(c1ccc(F)cc1)N(C(=O)CCC(=O)Nc1ccccn1)c1ccc(C)cc1 (centres unmarked) | 10.4
60 | CCc1cc(C(=O)NNC(=O)CCl)sc1C | 3.78
61 | CC1CC(C)CN(C(=O)C2CCN(C(=O)Nc3ccccc3)CC2)C1 (centres unmarked) | 20.2
62 | N#CC1=C(N)OC2=C(C(=O)CCC2)C12CCC1(CC2)OCCO1 | 11.9
63 | CC(C)c1ccc(N=C2NN=C(c3cccs3)CS2)cc1 | 1.42
64 | COc1ccc(-c2cc(C(F)(F)F)nc(SCCC(=O)NCc3ccco3)n2)cc1 | 7.01
65 | O=c1ccc2cc(S(=O)(=O)N3CCN(c4ccccc4F)CC3)ccc2o1 | 4.92
66 | Cn1c(SCC(=O)N2CCCCC2)nc2c(c1=O)SCC2 | 14
67 | CC(C)(C)NC(=O)NC(=O)CSc1ncccn1 | 19.5
68 | CCCc1cc(C(=O)NCc2ccco2)no1 | 7.66
69 | CCOC(=O)c1ccc(CNCc2ccc(C)cc2)cc1 | -1.83

Row | SMILES | hERG current change (%, negative = inhibition) at 1uM [%]
70 | CCc1ccc(OCc2nnc(SCC(=O)N3CCN(c4ccccc4)CC3)o2)cc1 | 3.11
71 | COc1ccc(OCCSc2n[nH]c(N)n2)cc1 | 9.4
72 | O=C(COc1ccc(Br)cc1Cl)NNC(=O)c1ccccc1 | 3.92
73 | O=S(=O)(NCCSCc1ccc(Cl)c(Cl)c1)c1ccc2c(c1)OCCO2 | 6.76
74 | Cc1ccc(C)c(NC(=O)CS(=O)(=O)c2c[nH]c3ccccc23)c1 | 3.85
75 | CCc1ccc(-n2c(SCC(=O)NC3CCS(=O)(=O)C3)nc3ccccc3c2=O)cc1 (centres unmarked) | 1.32
76 | CC(=O)Nc1ccc(/C=N/N2CCCCC2)cc1 | 13
77 | CC(c1ccccc1)C1NC(C(=O)O)CS1 (centres unmarked) | -5.59
78 | Cc1ccccc1-c1nnc(SCC(=O)NC2CCCC2)o1 | 6.85
79 | COc1ccc(NC(=O)CN(C)C(=O)c2cccc(Oc3ccccc3)c2)cc1 | 8.51
80 | Cc1ccc(-c2nc3cnccn3c2Nc2ccc3c(c2)OCCO3)o1 | -4.27
81 | COc1ccc2nnc(-c3ccccc3)n2n1 | -8.81
82 | Cc1ccc2nc(SCC(=O)Nc3ccc4c(c3)OCO4)nc(=O)n2c1 | 19.4
83 | O=C(NCc1cccnc1)c1ccc(COc2ccccc2Cl)cc1 | 12.5
84 | NCCCCCc1nnc(SCC(=O)c2ccc(Cl)cc2)o1 | -0.888
85 | Cc1ccc(CNc2nc(N)c([N+](=O)[O-])c(NCCO)n2)cc1 | -4.61
86 | CC1CN(CCOCCOc2ccccc2-c2ccccc2)CC(C)O1.O=C(O)C(=O)O (centres unmarked) | 2.23
87 | O=Cc1ccc(OC(=O)c2cccnc2)cc1 | 9.38
88 | COC(=O)C1=C[C@@H](C(=O)OC)[C@@H]2C3=C(C(=O)C2(C)C)[C@H](C)n2c(=O)n(-c4ccccc4)c(=O)n2[C@@H]3C1 | 12.4
89 | Cc1ccc(C)n1-c1ccc(C(=O)Nc2ccccc2F)cc1 | 10.7
90 | CC(=O)c1cccc(N(C(=O)c2ccco2)C(C(=O)NC2CCCCC2)c2ccc(C)o2)c1 (centres unmarked) | -1.17
91 | COc1ccc(C2=NOC(C(=O)Nc3ccc4c(c3)OCCO4)C2)cc1OC (centres unmarked) | 12.4
92 | COc1ccc(C(=O)Oc2ccc(/C=N/Nc3ccc(Cl)c(C(=O)O)c3)cc2OC)cc1 | 14.7
